107 compounds from PubChem BioAssay AID488969 (Vanderbilt High Throughput Screening Facility, 2010) can be followed below.

SMILES strings stand for the structures. Over roughly 110,000 compounds, “z-score” has its median near -0.1; the highest 2% begin near 2. The list shows a part of the results. Active and inactive are the calls of the source.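 How the source made its calls: active means z-score in the third read window above 3 or below -3; inactive means the rest.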

This assay has as its target Metabotropic glutamate receptor 8 (Rattus norvegicus) (UniProt P70579). The assay can be described thus: rat mGluR8 modulators via GIRK flux, primary screen, cell-based, thallium flux, HTS (AID 488969). Conditions: HEK293 rat mGluR8, GIRK (G protein-gated inwardly rectifying potassium channel) thallium flux, FluoZin2; at 10 µM; stronger effect = higher value; submaximal glutamate (EC20) added with thallium.
Sequence of UniProt P70579 (P70579 whole entry, looked up): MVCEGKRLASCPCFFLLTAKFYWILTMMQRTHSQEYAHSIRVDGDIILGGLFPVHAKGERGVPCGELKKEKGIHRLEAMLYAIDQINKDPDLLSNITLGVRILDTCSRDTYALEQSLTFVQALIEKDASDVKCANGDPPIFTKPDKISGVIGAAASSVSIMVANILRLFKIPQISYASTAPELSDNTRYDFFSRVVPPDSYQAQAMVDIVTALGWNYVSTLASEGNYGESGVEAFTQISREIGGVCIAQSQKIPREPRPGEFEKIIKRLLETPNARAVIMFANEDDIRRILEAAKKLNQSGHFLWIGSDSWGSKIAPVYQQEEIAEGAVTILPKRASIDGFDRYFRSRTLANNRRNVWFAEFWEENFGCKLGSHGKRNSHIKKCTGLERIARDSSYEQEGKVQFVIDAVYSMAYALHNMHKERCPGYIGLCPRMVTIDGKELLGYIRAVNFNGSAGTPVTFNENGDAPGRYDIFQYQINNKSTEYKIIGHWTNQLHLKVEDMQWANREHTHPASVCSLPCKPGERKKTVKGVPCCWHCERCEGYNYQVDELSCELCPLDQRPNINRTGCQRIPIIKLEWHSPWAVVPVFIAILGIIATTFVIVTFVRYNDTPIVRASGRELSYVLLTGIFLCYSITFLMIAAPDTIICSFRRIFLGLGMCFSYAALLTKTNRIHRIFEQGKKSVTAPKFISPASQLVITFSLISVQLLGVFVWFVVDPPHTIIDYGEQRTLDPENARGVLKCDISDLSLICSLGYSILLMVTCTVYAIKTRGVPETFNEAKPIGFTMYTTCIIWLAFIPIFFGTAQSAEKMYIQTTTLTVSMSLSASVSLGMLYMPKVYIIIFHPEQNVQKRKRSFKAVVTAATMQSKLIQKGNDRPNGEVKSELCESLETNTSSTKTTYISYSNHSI
In turn, `O=c1c2c(nc3n1CCCCC3)sc1c(O)c(Br)ccc12` displayed a z-score of 0.386.

In turn, `O=C(NCCc1ccccc1)C(=O)N/N=C/c1ccccc1C(F)(F)F` had a z-score of 0.0539.

For `Cc1nnc(NC(=O)COc2ccccc2)s1`, the z-score is -0.0838.

In the case of `COCCCNC(=S)NNC(=O)c1cccnc1`, the z-score was -0.216.

Take `COC(=O)Cc1c(C)c2ccc(OCC(C)=O)c(C)c2oc1=O`: the z-score came to 0.148.

Consider `COc1ccc(OC)c(NC(=O)Cn2c(CCC(=O)O)ccc2-c2ccccc2)c1`, for which the z-score was -0.23.

`O=C1c2cccc3cccc(c23)C(=O)N1OS(=O)(=O)c1ccc(Br)cc1` gave a z-score of 0.431.

`COc1cc(/C=N/OCC(=O)NC23CC4CC(CC(C4)C2)C3)ccc1OCc1ccccc1` displayed a z-score of 0.0285.

In turn, `COc1ccccc1C(=O)Nc1ccc(C(=O)/C=C/c2cccs2)cc1` yielded a z-score of 0.0741.

`CCc1nnc(NC(=O)CSc2nc(-c3ccc(F)cc3)cc(-c3ccccc3)c2C#N)s1` showed a z-score of 2.35.

Turning to `O=C(CN1C(=O)COc2ccccc21)NCCN1CCC(Cc2ccccc2)CC1`, the z-score came out at 0.921.

Consider `COC(=O)c1ccc(C(=O)OC)nc1`, for which the z-score is -0.118.

On to `COc1ccccc1CC(=O)N1CCN(c2ccccn2)CC1`, for which the z-score amounted to 0.0409.

Consider `Fc1ccc(CSc2nnc(-c3cc4c(s3)-c3ccccc3CC4)o2)cc1`, for which the z-score is -0.19.

In the case of `Cc1ccc(C(C(=O)NC(C)(C)C)N(Cc2cccs2)C(=O)c2ccc3c(c2)OCCO3)cc1` (configuration not stated), the z-score is -0.27.

Consider `CCOC(=O)c1c(C)nn(Cc2cccc(Cl)c2)c1N`, for which the z-score was -0.392.

Regarding `N#Cc1c(NC(=O)c2ccc(Cn3cc(Br)cn3)o2)sc2c1CCCCC2`, the z-score was -0.86.

The compound `CCOc1ccc(C2C(C#N)=C(N)Oc3nc[nH]c(=O)c32)cc1OC` (configuration not stated) yielded a z-score of 0.585.

Consider `O=C(NCC1CCCO1)c1sc2cc(Cl)ccc2c1Cl` (configuration not stated), for which the z-score was -0.499.

Turning to `O=C(CNC(=O)c1ccc(F)cc1)N/N=C/c1ccc(O)c([N+](=O)[O-])c1`, the z-score is -0.387.

For `O=C(COc1ccccc1Cl)OCC(=O)N1CCN(S(=O)(=O)c2ccccc2)CC1`, the z-score is -0.247.

Turning to `COCCn1c(CNc2ccc(F)cc2)nnc1SCC(=O)Nc1ccc(OC)cc1OC`, the z-score is -0.09.

`CN(C)S(=O)(=O)c1cccc(NC(=S)Nc2cc(Cl)cc(Cl)c2)c1`: the z-score is active: 8.

On to `CCCCNC(=S)N(Cc1c(C)noc1C)c1ccccc1`, for which the z-score is -0.268.

For the compound `CC(C)n1c(-c2ccco2)csc1=Nc1cccnc1`, the z-score was -0.3.

Regarding `O=C(CSc1nnc(-c2ccco2)n1Cc1ccccc1)NCc1ccccc1`, the z-score was -0.243.

As for `CCOc1ccc(CNC(=O)C2CCN(S(=O)(=O)N3CCCC3)CC2)cc1OC`, the z-score was -0.108.

Take `CCc1nnc(NC(=O)Cn2nc(-c3ccccc3OC)ccc2=O)s1`: the z-score worked out at 0.121.

As to `Clc1ccc(Oc2cnns2)c(Cl)c1`, the z-score is -0.233.

With `Fc1ccc(-c2cc(-c3nnc4n3CCCCC4)c3ccccc3n2)cc1`, the z-score was -0.316.

As to `O=C(NC1CCCCC1)C(c1ccc2ncccc2c1)N(Cc1ccc2c(c1)OCO2)C(=O)c1cccs1` (configuration not stated), the z-score was 0.00177.

`CCCCOc1ccccc1NC(=O)c1ccc(=O)[nH]c1` came in with a z-score of 0.312.

As to `CCOC(=O)c1c(CSc2nc(C)cc(C)c2C#N)n(C)c2cc(Br)c(OC(C)=O)cc12`, the z-score is -0.463.

With `CCOc1ccccc1N1CCN(C(=O)Nc2ccc(Cl)c(Cl)c2)CC1`, the z-score was -0.071.

With `COc1cccc(NC2c3ccccc3C(=O)N2Cc2ccco2)c1` (configuration not stated), the z-score is -0.544.

As to `O=C(O)C1CCCCC1C(=O)NCCc1ccc(Cl)cc1` (configuration not stated), the z-score was -0.235.

On to `COc1ccc(NC(=O)COC(=O)CCCOc2ccc(Cl)cc2Cl)cc1Cl`, for which the z-score was -0.203.

With `COc1ccccc1CCNC(=O)C(=O)NCC1OCCN1S(=O)(=O)c1ccc(Br)cc1` (configuration not stated), the z-score is -0.0454.

As to `Cn1c(=O)c2c(nc(CN3CCC(C(N)=O)CC3)n2Cc2c(Cl)cccc2Cl)n(C)c1=O`, the z-score is -0.541.

Consider `COC(=O)C(Cc1ccc(OC(=O)c2ccc(C(F)(F)F)cc2)cc1)N1Cc2ccccc2C1=O` (configuration not stated), for which the z-score was -0.102.

Regarding `CCOC(=O)C1CCCCN1C(=O)CCc1c(C)nc2ncnn2c1C` (configuration not stated), the z-score was -0.148.

With `O=C(NCc1cccnc1)c1cc(Sc2ccccc2Cl)nc2ccccc12`, the z-score was -0.668.

`c1ccc(Cn2nnc3c(N4CCOCC4)ncnc32)cc1` had a z-score of 0.38.

`CC(C)(C)OC(=O)NCCCCCc1nnc(SCC(=O)Nc2cccc(Cl)c2)o1`: the z-score is -0.352.

With `COc1cc2c3nnc(-c4ccc(F)cc4)c-3cn(Cc3ccc(C)cc3)c2cc1OC`, the z-score came out at 0.00189.

`Cc1cccnc1NC(=O)C1CCN(S(=O)(=O)c2cccs2)CC1` registered a z-score of 0.38.

`O=C(Nc1ccc2c(c1)CCC2)C1CCCO1` (configuration not stated): the z-score came out at 0.118.

For the compound `CC1CCN(C(=O)CNC(=O)Cn2ccc3ccccc3c2=O)CC1`, the z-score was 0.0333.

With `COc1ccc(CCNC(=O)CSc2ccccc2)cc1OC`, the z-score amounted to 0.0503.

As to `O=C(Nc1ccccc1)c1ccccc1NC(=O)C1CCCCC1`, the z-score was -0.109.

With `O=C(CSc1nnnn1-c1ccc2c(c1)OCCO2)N1CCc2ccccc21`, the z-score was -0.117.

In the case of `O=C(NCc1ccccc1)c1ccc(N2C(=O)C3CCCCC3C2=O)cc1` (configuration not stated), the z-score is -0.0469.

With `CN(C)c1ccc(NC(=O)CN2CCN(S(=O)(=O)c3cc(Cl)ccc3Cl)CC2)cc1`, the z-score is -0.25.

As to `COc1ccc(Oc2nc(-c3ccccc3)ncc2S(=O)(=O)c2ccccc2)cc1`, the z-score was -0.00536.

As for `O=S(=O)(c1ccc(Oc2ccc(Br)cc2)cc1)N1CCOCC1`, the z-score stood at 0.609.

Compound `Cc1c(/C=N/n2cnnc2)c2ccccc2n1CCOc1ccccc1` gave a z-score of 1.35.

With `CC(C)(O)C#Cc1ccccc1C(=O)NC(CC(N)=O)C(=O)O` (configuration not stated), the z-score worked out at 0.0593.

With `COCCN(CCOC)c1nc(S(=O)(=O)c2ccc(C)cc2)c(Cl)s1`, the z-score is -0.49.

For the compound `CCN1C(=O)C(CC(=O)Nc2ccc(OC)cc2)N(Cc2cccs2)C1=S` (configuration not stated), the z-score is -0.467.

For `O=C1c2ccccc2NC(c2ccccn2)N1c1ccc(Cl)cc1` (configuration not stated), the z-score is -0.0763.

Turning to `CC1(C)CC2CC(C)(CN2S(=O)(=O)c2ccc(C(=O)Nc3ccc(S(=O)(=O)N4CCOCC4)cc3)cc2)C1` (configuration not stated), the z-score is -0.113.

In the case of `CCc1nnc(NC(=O)CSc2nnc(CNc3cccc(Cl)c3)n2CC)s1`, the z-score was -0.0931.

For `CN(C)c1cc(-c2ccccc2)nc(N)n1`, the z-score is -0.197.

With `CNC(=S)NCCN1CCOCC1`, the z-score is -0.328.

Regarding `N#Cc1cn(-c2ccccc2)nc1-c1ccccc1`, the z-score is -1.14.

On to `COc1ccc(C2SCCN2C(=S)Nc2ccc(Cl)cc2)cc1` (configuration not stated), for which the z-score is 1.03.

Take `CCC(C)NC(=O)CC1Oc2ccc(Cl)cc2NC1=O` (configuration not stated): the z-score is -0.00317.

Consider `COC(=O)c1cc(NC(=O)c2cccc(C(F)(F)F)c2)c(=O)oc1C/C=N/OCc1cccc(Cl)c1Cl`, for which the z-score was -0.115.

Turning to `CCCOC(=O)Nc1cc(OC)c(Cl)cc1OC`, the z-score was -0.241.

As for `CC1=NN(C(=O)c2c(Br)cnn2C)C(O)(C(F)(F)F)C1` (configuration not stated), the z-score is -0.132.

Turning to `Cc1ccc(S(N)(=O)=O)cc1NC(=O)C1CC2CCC1C2` (configuration not stated), the z-score came to 0.686.

Regarding `CCOc1cc(C(=O)N2CCCC2)cc(OCC)c1OCC`, the z-score was -1.19.

`Cc1ccc(C(=O)Nc2ccc(S(=O)(=O)NCc3ccco3)cc2)cc1`: the z-score was determined as 0.0377.

Consider `CC(C)NC(=O)c1ccccc1NC(=O)/C=C/c1cccc([N+](=O)[O-])c1`, for which the z-score is -0.52.

On to `CC(C)(C)n1nnnc1C(c1ccc(Cl)cc1)N1CCSCC1` (configuration not stated), for which the z-score is -0.187.

Turning to `O=C(Cc1ccc2c(c1)CCCC2)Nc1ccc2ccccc2c1`, the z-score is -0.121.

Turning to `COC(=O)c1c(NC(=O)C2(C)Cc3ccccc3C(=O)O2)sc2c1CCCC2` (configuration not stated), the z-score is -1.03.

For `O=c1[nH]c(N2CCOCC2)nc2ncn(Cc3ccccc3)c12`, the z-score worked out at 0.18.

`CCCc1nc2ccccc2c(C(=O)OCC(=O)Nc2cccc(S(=O)(=O)N3CCOCC3)c2)c1CC` gave a z-score of 0.196.

`Cc1ccc(C(=O)N2CCN3C(=O)c4ccccc4C23c2ccc(Cl)cc2)cc1` (configuration not stated): the z-score was -0.253.

`Cc1nn(Cc2c(Cl)cccc2Cl)c(C)c1NC(=O)c1cnn2c(C(F)F)cc(-c3ccccc3)nc12`: the z-score is -0.375.

In the case of `CCOC(=O)c1c(C)[nH]c(C(=O)COC(=O)c2oc3ccccc3c2C)c1C`, the z-score amounted to 0.099.

Turning to `Cc1cc2nc(-c3ccc(SCC(=O)Nc4ccc(S(=O)(=O)NC5CC5)cc4)nc3)[nH]c2cc1C`, the z-score was -0.174.

With `Cc1ccc(S(=O)(=O)c2ccc(Cl)cc2)cc1S(=O)(=O)NC(C)C(=O)O` (configuration not stated), the z-score is -0.233.

As to `COc1cc(OC)cc(-c2nnc(SCC(=O)Nc3cc(C)on3)o2)c1`, the z-score was found to be 0.123.

`C=CCN1C(=O)/C(=C2/Sc3ccccc3N2CCCS(=O)(=O)O)SC1=S`: the z-score was -0.352.

Turning to `CCCn1c(SCC(=O)Nc2ccc3c(c2)OCCO3)nnc1-c1ccco1`, the z-score is -0.847.

Turning to `O=C(C(c1ccccc1)c1ccccc1)N1CCN(CCN2C(=O)c3cccc4cccc(c34)C2=O)CC1`, the z-score was -0.291.

Regarding `O=C(CN(Cc1ccccc1F)C(=O)Cn1nnc(-c2cccs2)n1)NCC1CCCO1` (configuration not stated), the z-score was -0.205.

With `CCCCC(=O)NC(Nc1nc(C2CC2)cs1)(C(=O)OCC)C(F)(F)F` (configuration not stated), the z-score was -0.154.

`Nc1nnc(N2CCCCCC2)s1` displayed a z-score of 0.397.

`Cc1ccc(S(=O)(=O)N/N=C\c2cc3c(cc2Br)OCO3)cc1` came in with a z-score of 0.0271.

`CCC(CC)NC(=O)COC(=O)c1cccc(C)c1O`: the z-score is -0.101.

Turning to `O=C(/C=C/c1ccco1)NC(=S)Nc1nc(-c2ccc3ccccc3c2)cs1`, the z-score was 0.121.

Regarding `C=CCn1c(-c2cccn(Cc3cccc(Cl)c3)c2=O)n[nH]c1=S`, the z-score is -0.0224.

Turning to `O=C1c2ccsc2SCCN1Cc1cccc(Cl)c1`, the z-score is -0.274.

`CCCS(=O)(=O)N1CCC(C(=O)NCCN2CCCC2)CC1`: the z-score is -0.0743.

`CCOC(=O)C1CCCN(C(=O)c2ccc3c(c2)NC(=O)C(N2CCOCC2)S3)C1` (configuration not stated) had a z-score of 0.245.

On to `Cc1ccc(/C=N/NC(=O)c2csc3c2CCCC3)cc1`, for which the z-score amounted to 0.0975.

`CCOc1cc(/C=N\NC(N)=O)cc(Br)c1OC(C)C`: the z-score was -0.0957.

`COc1ccc(-c2c(C#N)c(N)nc3sc(C(=O)c4ccccc4)c(N)c23)cc1`: the z-score was -0.254.

As to `Cc1ccc(S(=O)(=O)N2CCN(S(=O)(=O)c3ccc(C)cc3)C3OCCOC32)cc1` (configuration not stated), the z-score was -0.0688.

For `CC1=NN(C(=O)Cc2ccc([N+](=O)[O-])cc2)C(O)(c2cccnc2)C1` (configuration not stated), the z-score was -0.0359.

Consider `COCCn1c(N)c(C(=O)NCc2cccs2)c2nc3ccccc3nc21`, for which the z-score is -1.4.

Take `Cc1ccc(S(=O)(=O)C(NC(=O)c2ccccc2)=C(Cl)Cl)cc1`: the z-score was -0.295.

Regarding `Cc1ccc(/C=C/c2nc3ccccc3c(=O)n2CCc2ccccc2)cc1`, the z-score is -0.19.

With `CC(C)OCCCNS(=O)(=O)c1ccc2c(c1)oc(=O)n2C`, the z-score was -0.0732.
